Experimental data: paper PMC3466175
Results are given in words; binding and its absence hold for the method and conditions named. Binding seen in cells or lysates may run through a third protein. Some results given as binding are weak or reduced against the parent protein; the word gives no strength. For part of these data: Tags and fused reporters may be left off the sequences shown.

By UniProt entry, the sequences of proteins in these tests, tags left out. Where a name states a change or a piece, a line headed by the entry shows the natural chain unless it says otherwise. Chains listed by the source or under a name are the forms on record and can include a tag or linker. Residues count along the entry.
UniProt Q8IUC6: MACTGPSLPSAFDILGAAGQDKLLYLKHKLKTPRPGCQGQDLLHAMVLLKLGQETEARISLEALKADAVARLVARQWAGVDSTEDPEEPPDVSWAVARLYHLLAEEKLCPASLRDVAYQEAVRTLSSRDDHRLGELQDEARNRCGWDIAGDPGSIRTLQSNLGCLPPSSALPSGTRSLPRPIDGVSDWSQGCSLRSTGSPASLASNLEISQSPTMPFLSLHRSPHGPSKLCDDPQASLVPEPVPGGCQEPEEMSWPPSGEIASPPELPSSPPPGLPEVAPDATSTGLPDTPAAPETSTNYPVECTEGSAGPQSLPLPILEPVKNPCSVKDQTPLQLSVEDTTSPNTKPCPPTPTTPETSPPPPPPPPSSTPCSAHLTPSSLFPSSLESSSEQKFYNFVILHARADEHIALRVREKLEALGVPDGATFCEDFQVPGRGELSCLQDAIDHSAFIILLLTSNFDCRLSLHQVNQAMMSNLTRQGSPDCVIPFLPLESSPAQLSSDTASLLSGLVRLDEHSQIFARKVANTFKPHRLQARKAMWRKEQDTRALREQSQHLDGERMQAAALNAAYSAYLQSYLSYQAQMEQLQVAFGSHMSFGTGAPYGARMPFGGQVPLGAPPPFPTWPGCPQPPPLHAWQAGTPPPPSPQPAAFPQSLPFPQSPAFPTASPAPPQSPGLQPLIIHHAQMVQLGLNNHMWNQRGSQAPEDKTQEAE
TRIF-N (aa 1–359), Flag-tagged: residues 1-359 of Q8IUC6
TRIF TIR (aa 387–556), Flag-tagged: residues 387-556 of Q8IUC6
TRIF-C (aa 534–712), Flag-tagged: residues 534-712 of Q8IUC6

Tests used:
[1] = target: TRIF-N (aa 1–359), Flag-tagged (UniProt Q8IUC6); test: co-IP; 293T cells co-transfected, 24 h; lysed in RIPA buffer (25 mM Tris-HCl pH 7.4, 150 mM NaCl, 1 mM EDTA, 1% NP40, 0.25% sodium deoxycholate); anti-Flag M2 agarose beads overnight at 4°C; immunoblot with anti-Myc and anti-Flag antibodies
[2] = target: TRIF TIR (aa 387–556), Flag-tagged (UniProt Q8IUC6); test: as above
[3] = target: Flag-TRIF (full length) (UniProt Q8IUC6); test: as above
[4] = target: T1, Flag-IKKi (UniProt Q14164); test: as above
T1 sequence: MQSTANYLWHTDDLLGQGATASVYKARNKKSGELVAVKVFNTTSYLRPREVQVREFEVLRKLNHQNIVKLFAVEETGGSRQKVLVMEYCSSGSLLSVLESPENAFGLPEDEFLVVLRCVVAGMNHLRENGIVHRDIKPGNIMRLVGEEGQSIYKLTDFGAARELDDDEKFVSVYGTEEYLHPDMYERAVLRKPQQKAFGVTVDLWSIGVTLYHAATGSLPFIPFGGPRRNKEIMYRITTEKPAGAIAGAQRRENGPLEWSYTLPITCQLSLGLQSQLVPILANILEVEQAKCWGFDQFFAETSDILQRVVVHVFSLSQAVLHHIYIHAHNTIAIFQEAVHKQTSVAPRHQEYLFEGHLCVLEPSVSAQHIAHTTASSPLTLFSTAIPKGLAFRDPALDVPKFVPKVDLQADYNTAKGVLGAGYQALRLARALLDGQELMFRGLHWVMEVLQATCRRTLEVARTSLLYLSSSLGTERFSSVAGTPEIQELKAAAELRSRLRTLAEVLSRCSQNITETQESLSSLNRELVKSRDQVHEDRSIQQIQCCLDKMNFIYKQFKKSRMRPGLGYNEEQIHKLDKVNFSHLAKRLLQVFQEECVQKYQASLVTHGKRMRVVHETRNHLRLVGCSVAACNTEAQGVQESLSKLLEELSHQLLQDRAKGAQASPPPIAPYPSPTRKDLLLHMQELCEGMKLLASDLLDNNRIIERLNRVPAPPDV

[5] = target: TRIF-C (aa 534–712), Flag-tagged (UniProt Q8IUC6); test: as above
[6] = target: T2, Flag-TBK1 (UniProt Q9UHD2); test: as above
T2 sequence: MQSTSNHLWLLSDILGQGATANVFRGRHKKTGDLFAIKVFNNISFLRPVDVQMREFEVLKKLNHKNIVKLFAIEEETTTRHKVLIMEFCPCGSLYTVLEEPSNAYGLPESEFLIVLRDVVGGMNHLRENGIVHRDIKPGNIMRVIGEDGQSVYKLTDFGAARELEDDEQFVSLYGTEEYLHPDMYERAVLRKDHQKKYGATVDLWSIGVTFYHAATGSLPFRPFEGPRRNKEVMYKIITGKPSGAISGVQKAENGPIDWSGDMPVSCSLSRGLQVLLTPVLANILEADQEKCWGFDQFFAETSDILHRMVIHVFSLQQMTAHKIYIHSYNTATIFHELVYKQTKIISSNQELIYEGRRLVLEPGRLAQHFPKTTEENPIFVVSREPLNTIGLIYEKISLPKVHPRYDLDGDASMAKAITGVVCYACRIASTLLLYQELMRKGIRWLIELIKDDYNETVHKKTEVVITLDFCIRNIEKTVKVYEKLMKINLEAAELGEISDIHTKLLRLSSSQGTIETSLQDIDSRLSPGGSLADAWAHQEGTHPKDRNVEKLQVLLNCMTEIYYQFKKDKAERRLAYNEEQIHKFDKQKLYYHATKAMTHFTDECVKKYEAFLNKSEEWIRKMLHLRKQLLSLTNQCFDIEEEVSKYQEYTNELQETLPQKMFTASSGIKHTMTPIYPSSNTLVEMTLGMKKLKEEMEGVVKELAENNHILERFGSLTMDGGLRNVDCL

[7] = target: endogenous TRIF (human (endogenous in HeLa)) (UniProt Q8IUC6); test: co-IP; endogenous proteins; HeLa cells untreated or treated with 100 µg/ml poly(I:C) for 4 h, lysed in RIPA buffer; goat anti-TRIF antibody or control goat IgG overnight at 4°C, protein A/G beads; immunoblot with rabbit anti-TRIM38 and rabbit anti-TRIF antibodies

B1: TRIM38-Myc (full length TRIM38) (protein, UniProt O00635 1-465)
chain: MASTTSTKKMMEEATCSICLSLMTNPVSINCGHSYCHLCITDFFKNPSQKQLRQETFCCPQCRAPFHMDSLRPNKQLGSLIEALKETDQEMSCEEHGEQFHLFCEDEGQLICWRCERAPQHKGHTTALVEDVCQGYKEKLQKAVTKLKQLEDRCTEQKLSTAMRITKWKEKVQIQRQKIRSDFKNLQCFLHEEEKSYLWRLEKEEQQTLSRLRDYEAGLGLKSNELKSHILELEEKCQGSAQKLLQNVNDTLSRSWAVKLETSEAVSLELHTMCNVSKLYFDVKKMLRSHQVSVTLDPDTAHHELILSEDRRQVTRGYTQENQDTSSRRFTAFPCVLGCEGFTSGRRYFEVDVGEGTGWDLGVCMENVQRGTGMKQEPQSGFWTLRLCKKKGYVALTSPPTSLHLHEQPLLVGIFLDYEAGVVSFYNGNTGCHIFTFPKASFSDTLRPYFQVYQYSPLFLPPPGD
B1 was tested, and the binding [1] was “binds”, the binding [2] was “no binding” and the binding [3] was “binds”. For the same binder, the binding [4] was “no binding”, the binding [5] was “no binding” and the binding [6] was “no binding”.

B2: endogenous TRIM38 (protein, UniProt O00635 1-465)
chain: MASTTSTKKMMEEATCSICLSLMTNPVSINCGHSYCHLCITDFFKNPSQKQLRQETFCCPQCRAPFHMDSLRPNKQLGSLIEALKETDQEMSCEEHGEQFHLFCEDEGQLICWRCERAPQHKGHTTALVEDVCQGYKEKLQKAVTKLKQLEDRCTEQKLSTAMRITKWKEKVQIQRQKIRSDFKNLQCFLHEEEKSYLWRLEKEEQQTLSRLRDYEAGLGLKSNELKSHILELEEKCQGSAQKLLQNVNDTLSRSWAVKLETSEAVSLELHTMCNVSKLYFDVKKMLRSHQVSVTLDPDTAHHELILSEDRRQVTRGYTQENQDTSSRRFTAFPCVLGCEGFTSGRRYFEVDVGEGTGWDLGVCMENVQRGTGMKQEPQSGFWTLRLCKKKGYVALTSPPTSLHLHEQPLLVGIFLDYEAGVVSFYNGNTGCHIFTFPKASFSDTLRPYFQVYQYSPLFLPPPGD
With B2 the binding [7] was “binds”.

B3: TRIM38 PRYSPRY (aa 274–465) (domain or fragment, UniProt O00635 274-465)
chain: CNVSKLYFDVKKMLRSHQVSVTLDPDTAHHELILSEDRRQVTRGYTQENQDTSSRRFTAFPCVLGCEGFTSGRRYFEVDVGEGTGWDLGVCMENVQRGTGMKQEPQSGFWTLRLCKKKGYVALTSPPTSLHLHEQPLLVGIFLDYEAGVVSFYNGNTGCHIFTFPKASFSDTLRPYFQVYQYSPLFLPPPGD
With B3 the binding [3] was “binds”.

B4: TRIM38 ΔPRYSPRY (aa 1–274) (domain or fragment, UniProt O00635 1-274)
chain: MASTTSTKKMMEEATCSICLSLMTNPVSINCGHSYCHLCITDFFKNPSQKQLRQETFCCPQCRAPFHMDSLRPNKQLGSLIEALKETDQEMSCEEHGEQFHLFCEDEGQLICWRCERAPQHKGHTTALVEDVCQGYKEKLQKAVTKLKQLEDRCTEQKLSTAMRITKWKEKVQIQRQKIRSDFKNLQCFLHEEEKSYLWRLEKEEQQTLSRLRDYEAGLGLKSNELKSHILELEEKCQGSAQKLLQNVNDTLSRSWAVKLETSEAVSLELHTMC
In the case of B4, the binding [3] is reported as “no binding”.
